In PMC10726135:
This is one part of the list. At the low end of the ranking the order means little. The protein was read in a cell extract, so binding may be indirect.

Molecular target: T1, HNF4alpha8 (COS-7 nuclear extract) (UniProt P41235-5)
T1 sequence: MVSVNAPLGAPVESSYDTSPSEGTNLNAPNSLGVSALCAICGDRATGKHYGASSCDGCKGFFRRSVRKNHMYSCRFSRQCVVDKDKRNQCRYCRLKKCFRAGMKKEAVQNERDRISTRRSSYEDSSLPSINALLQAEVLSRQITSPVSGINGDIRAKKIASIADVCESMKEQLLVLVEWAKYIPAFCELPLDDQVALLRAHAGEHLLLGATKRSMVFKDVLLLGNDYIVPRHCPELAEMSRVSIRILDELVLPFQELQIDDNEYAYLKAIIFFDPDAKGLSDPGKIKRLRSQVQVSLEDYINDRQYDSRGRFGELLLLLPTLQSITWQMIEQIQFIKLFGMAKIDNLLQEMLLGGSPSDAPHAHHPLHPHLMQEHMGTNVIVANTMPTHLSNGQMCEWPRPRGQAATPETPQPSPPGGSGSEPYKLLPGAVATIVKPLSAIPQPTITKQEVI
Assay: protein-binding microarray
Details: COS-7 nuclear extract on double-stranded Agilent 4x180k PBM; binding buffer, salt, pH and temperature not given; high values mean tight binding; double strand, one strand shown; sequences stand for … in …GCCTAGGGAGATTAGAGTATCGGTCGA

Sequence	binding signal (log2 normalized intensity)
GGGCCAGCAGTGCCCAAAGCCCAAGGGATG	-1.33
GGCGTGACCCCCACTGCCTGCCTGCCAACT	2.94
TGTCCACCTTATCTAATGCCCCAAATGACG	2.66
ATCAAGGTGGTTTCACTTCAAGATGGCATC	0.407
TGTGTCAAAGGTCACTTAGTCCCTAAGTCT	5.26
TTCCTATGTAAACACAAGATATTATTAGAC	-0.883
TGCTAGAGTACTTGGACTTTAACCTTTAGA	9.71
TAAATGACCTCTGCCCTTCCACCCACTTTA	4.61
GTCATAAGCTGTGGGATCCAACCAGAGGGA	-1.34
CTCTTGCTTCCTGGGATGCATTTGAAACCA	-0.67
AAGTTCCCCGGGCAGCTGTGTTTGCAGCCG	-1.1
GACGCTCAGTAAATCTGCACTTTACGTAAG	-1.3
TAGGAGGTCAGCACAAGATACAGCTTATCA	-1.51
GTCCTAAAGAGGATATCCTGGCAGTGTGGA	0.672
CTGTTTATGGGTTAACAGAATGAACAGCTC	0.793
ATGCTGGTCTCCTTGCCCCACCCCCCACCC	7.48
ATCCTGCCTCCATTAATTAACCTTTGAGCT	6.76
GCTGAGGTTAGAATCCTTATCTGGTGTGCT	-0.717
GAGCAAATACTTATGATATGAAGCATTGCT	-1.43
GGCTGGCCCTGAGCCAAGGGAGCACAACCC	-1.31
ATCTTTTCTTTTAAAAAGCTGCAATGGCTT	-1
GTGTCAGCATCTAAACCTCTGCACACAGGA	-1.2
AACATTACTAACTGGACTTTATCTACCATT	2.73
CGGATCCTCCCAGCCTGGAGGAGGGCGAGG	-1.28
GATAGCCTTTGCCTCCACCTTCTCTCCCAC	0.15

Sequence	binding signal (log2 normalized intensity)
AGAATTCCAGAGATGCCAGGAGAGCCGAAG	-1.33
GGCAAAAGAGATAGCGAGAAGGCAGGTAGA	-1.3
CAGCAATCACCTACCCCCAGATTCTCTGTT	2.47
TGATGACTTTTGACCCCAGGGGAAACTCCA	5.06
TGTACAATGGAAGTGAGTCAGTTCTGTCCA	0.777
CTAACCCCTAACCCAGTGAATTCCTTCCTT	1.99
GGAGAGAGTTTGGCCCCAGTTCCCATGGAC	1.45
TCAGTAAATCTTAGAGAACACTCCTCCCCT	3.29
GGACTTGATCCAGGGCAAAGGTCATAATTT	7.95
GGTGAGCAGAGGGAGGACAAAGTTCTGTCC	1.44
GGGCGCACAAGATGCCGCCTCCCCGGGGAT	-1.29
GTGGTACTCCAAAGGTCAGTTTAATTTTTG	4.44
GGGGGTTGCAAGTCTGAGGCTGCTCTCTGT	-0.365
GAGATGGCCCCTCTCTTTTATTATATTGAA	1.42
TTGAGTTTGCTCTGCTACTAACTGCATGAC	-0.116
TAGTCTTATCTCAAAGGGAGATTCCTGACA	-1.2
GTGTATGGACTGTAATACACAAGCAATAGG	0.996
TAGCTCGGGGGCCCTTCCCCCCTCTGCAGC	2.13
GTATCAGGGCTCAGGAATGTGGGGTCAACA	3.99
TAGGCTGTAGAGGAGATGTGGTGGACTTTA	4.99
CCACTGCCTGCCTGCCAACTCCACGCCCGC	-1.34
GTGGAGTTGACACAGACCTGCCTCTCTCTC	-1.14
CTTCAAAGAAGAGCTCAGTCACAGCAGTGG	-1.41
TATGCCCCCCCACCCCACACACACACAGCA	6.47
AGACATTCTGGCAAAGCCAATCTGCTTAAA	-1.35

Sequence	binding signal (log2 normalized intensity)
CCTGACTCATAGCTCCAGAGCCACCGCTAC	-1.42
CACTGTAACAGTTCAAGCAGTATTTGTGCC	-0.0886
TGGACCCAGCTGGTAAGTGCAAGGCCCAGC	-1.32
ATCATTAGGGAAAATAGTGACCCTGTCTCT	2.69
AGTCCTGCATGTGTTCACACCACACTCTCC	-0.626
CCAAAAGACCACACTCATCAGGTGAGATAA	-1.44
AACTGTCTCTGTTGCTCAATTCTGCTGTTG	0.561
GATTTACCTCTGACCACTCTGCCAGGTGAC	-1.27
AGAGAGCCAGATGAAGCTGCAGCCTTAAGA	-1.45
TCCCTTTGTCTCCAGGCCCTGGGATTGGCT	-1.12
AGAATAAATCTGTTAGCAGAGCAATTACTC	-1.3
TTTTTACCATCTCCAACATGACCACCTGGT	0.78
GCAAGTATTTCACCCCAGAGGCTAAATGAC	0.436
ACTGATTCCAAAGGAAATCACATAGTAACA	-1.24
GTCAGTTCATTAAAAAAAAAAAAAAATACT	-1.35
AACCTAGCCCCCTTTCCCTTATCTTTGTTA	2.54
GGAGCAATCATCGCACCTAAGGGCACCCTT	-1.06
TCGGCCTTTGACCTCGTGATAACGACATTC	4.33
TTTGCACAGTACTGATCTGGGGCCTATCTT	-1.31
CAAAGCCCCTTTCCACTCTACCGTCCTCCC	2.37
CAAGCAAACTGCAAATACAGGTGAATTTCA	-1.34
TAACCATACTGAGTGTTGGTCAGGACGTGA	0.876
ACCTTTGAGCTGAGTTCCACAGATAAGGAG	-1.32
TAAGTGGAATGTTGCTGTGCTGCCCTCTTG	3.03
TTGTCTGACTGTGATACCAGGGGTCATTTT	5

Sequence	binding signal (log2 normalized intensity)
GATAACAGCTTGATAATCCCCATGGGACCA	-1.23
CAATGTGACTGGAGCAGAGCGATCAAAGGT	1.37
TTACCCGCTTAAGAGTGAATTCTGCAGCAG	-1.09
AGCCTGCCCTCCTAGGGACAGGTGCGACGA	-1.29
GTCACGTGTGACCAAGGACAAACTGAGGAG	-1.38
AACAGAGATTTGCAGCTCAAAGTGCTTTTC	-0.531
GAAAAACTGAGCTTTAGATAGCTGTTAAAT	-0.552
AGTCAGAAGAACTGATTCCAAAGGAAATCA	-1.32
TTAACAAGCATTTTGTTCCCATTGATCATT	1.72
TATGGCCTTTCTTCATTGTTCGCATACCTC	1.22
AATGTCTGGAAGTTCTTCCTTAAGTCTAAC	0.865
TTTCTCTCCTAAGCAGGACAGCAGAGTGGA	-1.13
GCCTTCCCCTGCCACTTTCACAAATCATTA	0.197
AAAGCTTTTTGATTGCTTATAGCTTGCTTC	-1.25
AGCTGGGCTATACAATTCCAGCAAGGATGG	-1.37
CAATGAACAAAGGTCGGTGGTATGTGTGTG	3.36
ATGAGTGACCTTTATCCAGTTCTGTGTACA	3.78
TGGTGCTTTTGATATTGTTGTAAAGCAGTG	1.98
AAAGCTGGCTGGCGGCTAGTGTACAGGTGA	0.565
ACAGAGAAGGCCCTGAACTCCCAGCCTCCA	-1.26
TGTGCAGAGGAGGGGGCAGGAGCCCAAGAA	-1.33
AGAGTTAATCTGTTTACACAGTGAGATGGC	-0.91
ACAAGATCTTTGGACTATTGTGAAGTGATA	2.26
TTTCAAGAATGGAGAAAACAACATTCCTTG	-1.18
TCTCTGACTGGAAGTTGCCCGAGCTGCCCT	2.68

Sequence	binding signal (log2 normalized intensity)
CTCTTTAGGCTGGACTCTGACCCATTCCTT	5.82
GCATTCCTGCACACCTGCCTTTGATCAGGG	0.613
ACAGGAGATCAGATGGGGTGAACTTTGGAC	9.11
GAGAGTCCTCTTGGTTTATGTTCACCTCAG	0.661
AGTACCGCTCCTCTCTGTATTCCCTCTCTT	0.898
CTGAGCAGGGGACTAAGAGCAGCCTGACTA	-1.29
CTAAGCAGCGAAGCTGTGTCAGGCATTGTA	-0.633
TCTGATGAGTCCCCCGGCTCTACGCAAGTG	2.46
ACGAATGGGCAAAACATTCCTAAACAAGGG	-1.22
ACGCTCCCAGTATGAGCGGCGCTGACCCCG	5.07
CGCAAGCATATCTCTAGATCTCAGTTGGTC	1.51
AGGCTAAGGCAGGAGAATCGCTTGAACCCA	2.11
GACCTAGAAGCCAGGGACCAGGAAGGCAGT	-1.39
CGCCCGCGCCGGCCTCGGTCCTCGCTCGCC	-1.3
AAAGCTTCTGCGGAAATAATTGATTCAGGT	0.0259
GGAGGAGCTGTTTGACATCCAAAGTTTCCT	0.202
GCAGCTGAGGATTGTCAGGCCAGTAGGTCA	1.91
ATTCATAAAATTACGCCACAGAGTTGCTGT	-1.17
ATTAAGATCAAAGAATTCCTAATAATACTG	-1.33
TGAGTTCTGTCCTTTGTCCCACATCTGTGA	1.97
ACCCTCAGGCTCCACCGGATGGATAGGAAT	-1.41
GTGCCGTGAGGGGTTATGGAGAGTGGAAGA	-1.37
ATCTTTATCTTTTCACTTTTTCCCTGCATG	1.04
TATCTTGTGACCTTTGACTCATTATCCCCC	7.09
GGTTTTCACAACCTCCCTTTGAAGGAGCCA	-1.36

Sequence	binding signal (log2 normalized intensity)
AAACCTTTAATGATGAGTCCAAGTTCCACA	2.9
CCCCACTCCACCTACGCTACGCACCAGGCA	0.531
TATATTCAACCCCCACTTCCTGACTTGGCC	3.85
TGCAGAGCTTAGTTTGCCACGGTCAGCAAT	-1.31
CAACCCAAAGCATGTCCAGAATCCTAACTG	-1.29
GAAATCTCAGTCAAATGCAAAGGCAAACAG	-1.14
AATCGCATTGCAAAATCCATCTAAATGGCA	-1.33
GATGAATAGGGACGTTCTACTTGTTAGTAA	1.66
TGATCTTTGAAACATAACAGCAACAACACA	0.241
ATGGTGGAGGGTCTTGCTTTGATGTTGATG	1.31
GCTCTAGACATCGACCTTTGTGGGCTTCAG	3.19
GGGGAAAGAGCTGAGGAAAAAAGTTTGAAA	-1.36
AATCAACCTTTGATCGTTTGCATGCAGGGC	3.98
CAGAATTACTGACTCCACAGTGGGGCAGAT	-1.23
GACAGCAGTAGAAAACAGAGAAGCCGTGGT	-1.38
AAAGCCTAGGCTCCAGGGCACTGCCCTTTG	3.51
AAGAAAGGGGAGATAATGCCAGAAAGGTCT	-1.31
GATACAACGGTTCAAAGGACAGACTTTGGA	4.08
CAAAACCCAGTTCATAGGTCAATTCTTTGA	3.58
GTGTGTGGCCTGCACAGTTGCACAATGTCA	0.815
